Data reported in patent US20140314857A1, “FORMULATIONS FOR ENHANCED BIOAVAILABILITY OF ZANAMIVIR” (priority 2012, published 2014).
“And” between values parts separate entries of the source, which are not always exact repeats. Equal entries are not always repeated. This continues a long series; more values of the same kind are listed elsewhere.

Assay: Intravenous and intraduodenal bioavailability of zanamivir from three formulations (Example 5)
Details: individual rats
From the text: Male Sprague-Dawley rats (Hilltop Labs), 3 animals per treatment group, 250-350 grams in weight, were fitted with a jugular vein cannula (JVC). Animals intended for intraduodenal dosing were also fitted with one or more intraduodenal cannula (IDC) and those intended for intravenous dosing were fitted with a second JVC. Food was withheld from the animals for a minimum of twelve hours prior to test article administration and was returned approximately four hours post-dose. Water was supplied ad libitum.
Intraduodenal doses composed of 1.5 mg of zanamivir and varying amounts of an enhancer (glycerol or Capmul MCM L8) were injected directly into the duodenum via the IDC. Intravenous dosing was conducted by the injection of 1.5 mg of zanamivir in 200 μL of PBS through a JVC. For some experiments, the absorption enhancer was administered intraduodenally 2 hr prior to administering 1.5 mg of zanamivir in PBS through a second IDC. Each intraduodenal dose was followed with the introduction of a small air bubble (˜10 μL) in the cannula followed by a flush of 125 μL of PBS to ensure the dose was given in full. The volume of PBS used for cannula flush was consistent across the treatment groups. The cannula was tied to prevent the PBS remaining in the cannula from entering the duodenum.
Blood samples collected via the JVC, approximately 400 μL each, were obtained at 2 min, 5 min, 15 min, 30 min, 60 min, 90 min, and 120 min, with sodium heparin used as an anti-coagulant. Each sample was placed into a chilled tube containing the anticoagulant and kept on ice until centrifugation at 4° C., 3,000×g, for 5 min. The plasma supernatants were stored at −70° C. until LC-MS analysis.
Dosing solution samples were assayed by LC-MS/MS using electrospray ionization. The chromatographic system consisted of Perkin Elmer series 200 micropumps and autosampler equipped with a Waters Atlantic® HILIC Silica 3 μM, 2.1×50 mm column. The mass spectrometer was a PE Sciex API 4000 with electrospray interface in multiple reaction monitoring mode. […] Stock solutions (1 mg/mL zanamivir) were prepared in water. Standards (eight concentrations) were prepared in the appropriate matched matrix (HBSSg or Sprague-Dawley rat plasma containing sodium heparin) and diluted 50-fold with methanol. Experimental samples were treated identically.
Standards and samples were prepared in Sprague Dawley rat plasma containing sodium heparin as an anticoagulant. An eight-point calibration curve was prepared at concentrations of 1000, 750, 500, 250, 100, 50, 25, and 10 ng/mL by serial dilution. Standard samples were treated identically to the study samples.
Plasma samples were extracted by protein precipitation in methanol.
In this example, the bioavailability of Zanamivir was evaluated after intravenous and intraduodenal doses in male Sprague-Dawley rats. The test compound was dosed at 1.5 mg/animal through intravenous and intraduodenal routes from different formulations. Plasma levels were determined by LC-MS/MS analysis. Pharmacokinetic parameters were estimated by a non-compartmental model using WinNonlin v4.1 software.

CC(=O)NC1C(NC(=N)N)C=C(C(=O)O)OC1C(O)C(O)CO (stereo not drawn) [Zanamivir, 5-acetamido-4-guanidino-6-(1,2,3-trihydroxypropyl)-5,6-dihydro-4H-pyran-2-carboxylic acid]
Plasma concentration (ID 1.5 mg/animal, Capmul MCM L8 50 µL, Ex.5, 0.25 hr): 2680 ng/mL and 3520 ng/mL and 6850 ng/mL | Plasma concentration (ID 1.5 mg/animal, Capmul MCM L8 50 µL, Ex.5, 0.5 hr): 1950 ng/mL and 2420 ng/mL and 4370 ng/mL | Plasma concentration (ID 1.5 mg/animal, Capmul MCM L8 50 µL, Ex.5, 0.83 hr): 4560 ng/mL and 4840 ng/mL and 12300 ng/mL | Plasma concentration (ID 1.5 mg/animal, Capmul MCM L8 50 µL, Ex.5, 1.0 hr): 644 ng/mL and 898 ng/mL and 1710 ng/mL | Plasma concentration (ID 1.5 mg/animal, Capmul MCM L8 50 µL, Ex.5, 1.5 hr): 300 ng/mL and 472 ng/mL and 962 ng/mL | Plasma concentration (ID 1.5 mg/animal, Capmul MCM L8 50 µL, Ex.5, 2.0 hr): 147 ng/mL and 193 ng/mL and 482 ng/mL | Plasma concentration (ID 1.5 mg/animal, Glycerol 50 µL, 0.25 hr): 737 ng/mL and 986 ng/mL | Plasma concentration (ID 1.5 mg/animal, Glycerol 50 µL, 0.5 hr): 659 ng/mL and 755 ng/mL | Plasma concentration (ID 1.5 mg/animal, Glycerol 50 µL, 0.83 hr): 77.1 ng/mL and 105 ng/mL | Plasma concentration (ID 1.5 mg/animal, Glycerol 50 µL, 1.0 hr): 49.2 ng/mL and 797 ng/mL and 400 ng/mL | Plasma concentration (ID 1.5 mg/animal, Glycerol 50 µL, 1.5 hr): 85.1 ng/mL and 71 ng/mL | Plasma concentration (ID 1.5 mg/animal, Glycerol 50 µL, 2.0 hr): 65.3 ng/mL and 65.6 ng/mL | Plasma concentration (ID 1.5 mg/animal, PBS 50 µL, 0.25 hr): 105 ng/mL and 139 ng/mL and 43.9 ng/mL | Plasma concentration (ID 1.5 mg/animal, PBS 50 µL, 0.5 hr): 186 ng/mL and 159 ng/mL and 56.4 ng/mL | Plasma concentration (ID 1.5 mg/animal, PBS 50 µL, 0.83 hr): 60.2 ng/mL and 25.2 ng/mL and 30.7 ng/mL | Plasma concentration (ID 1.5 mg/animal, PBS 50 µL, 1.0 hr): 117 ng/mL and 97.9 ng/mL and 44.2 ng/mL | Plasma concentration (ID 1.5 mg/animal, PBS 50 µL, 1.5 hr): 82 ng/mL and 41.6 ng/mL | Plasma concentration (ID 1.5 mg/animal, PBS 50 µL, 2.0 hr): 42.6 ng/mL and 53.4 ng/mL | Plasma concentration (ID 1.5 mg/animal, PBS, 50 µL blank glycerol -2 hr, 0.25 hr): 58.1 ng/mL and 58.9 ng/mL | Plasma concentration (ID 1.5 mg/animal, PBS, 50 µL blank glycerol -2 hr, 0.5 hr): 77.5 ng/mL and 81.8 ng/mL and 39.6 ng/mL | Plasma concentration (ID 1.5 mg/animal, PBS, 50 µL blank glycerol -2 hr, 0.83 hr): 58.1 ng/mL and 43.2 ng/mL | Plasma concentration (ID 1.5 mg/animal, PBS, 50 µL blank glycerol -2 hr, 1.0 hr): 45.7 ng/mL and 95.8 ng/mL and 49.5 ng/mL | Plasma concentration (ID 1.5 mg/animal, PBS, 50 µL blank glycerol -2 hr, 1.5 hr): 26.9 ng/mL and 78.2 ng/mL and 37.3 ng/mL | Plasma concentration (ID 1.5 mg/animal, PBS, 50 µL blank glycerol -2 hr, 2.0 hr): 43.7 ng/mL and 76.7 ng/mL and 33.9 ng/mL | Plasma concentration (IV 1.5 mg/animal, Normal Saline, Ex.5, 0.033 hr): 22900 ng/mL and 24600 ng/mL | Plasma concentration (IV 1.5 mg/animal, Normal Saline, Ex.5, 0.25 hr): 11000 ng/mL and 10800 ng/mL | Plasma concentration (IV 1.5 mg/animal, Normal Saline, Ex.5, 0.5 hr): 6630 ng/mL and 6120 ng/mL | Plasma concentration (IV 1.5 mg/animal, Normal Saline, Ex.5, 1.0 hr): 2620 ng/mL and 2040 ng/mL | Plasma concentration (IV 1.5 mg/animal, Normal Saline, Ex.5, 1.5 hr): 1050 ng/mL and 692 ng/mL | Plasma concentration (IV 1.5 mg/animal, Normal Saline, Ex.5, 2.0 hr): 665 ng/mL and 452 ng/mL
